Source: PubChem BioAssay AID1347073 (National Center for Advancing Translational Sciences (NCATS), 2019)
About 200 (0.44%) of roughly 45,000 compounds were called active. Another 7% or so got no clear call; they are omitted. Calls come from the whole dose curve; as a rule, active = well fitted activation curve with a large enough effect; inconclusive = small, poorly fitted or top-dose-only effect; inactive = no such curve, though single readings can be large or run the other way. The list shows a part of the results.
Potency is the fitted concentration of half-maximal effect.

Assay: qHTS of TDP-43 Inhibitors: NCGC Sytravon Library Screen; note: nearly all actives have a fitted effect of over 55% in size; for growth rescue (activation): 0% is about no effect
Settings: yeast TDP-43 toxicity rescue, BacTiter-Glo growth, 24 h; series mostly up to 46.1 µM; growth rescue (activation): at the top concentration
Outline: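 TDP-43-expressing yeast, pregrown in raffinose, seeded at OD600 0.02 in galactose medium with compound for 24 hr at 30 deg C. Growth read by BacTiter-Glo luminescence, so rescue of toxicity appears as activation.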
In the case of CCn1cc(C(=O)O)c(=O)c2cc(F)c(N3CCN(C(=S)NC(=O)c4ccccc4)CC3)cc21, the “growth rescue (activation)” value is reported as inactive: 21.3%.
With NC(=O)c1ccsc1NC(=O)COC(=O)COc1ccccc1F the “growth rescue (activation)” value was inactive: 13.1%.
In the case of CC(C)C(=O)Nc1ccc(C(=O)Nc2nnc(C(C)(C)C)s2)cc1, the “growth rescue (activation)” value is reported as inactive: -7.75%.
For Cc1nnc(SC(C)C(=O)Nc2ccc3ccccc3c2)[nH]c1=O (stereo not drawn), the “growth rescue (activation)” value was inactive: 7.78%.
In the case of O=C1CC(N2CCN(c3ccc(F)cc3)CC2)C(=O)N1Cc1ccccc1 (stereo not drawn), the “growth rescue (activation)” value is reported as inactive: -7.97%.
For Cc1ccccc1Nc1c(-c2ccccc2)nc2ncccn12, the “growth rescue (activation)” value was inactive: 4.77%.
For CN(c1ccccc1)S(=O)(=O)c1ccc2c(c1)oc(=O)n2C, the “growth rescue (activation)” value was inactive: 15.4%.
In the case of O=C(/C=C/c1ccc(N2CCCCC2)c([N+](=O)[O-])c1)c1ccc(S(=O)(=O)N2CCCC2)cc1, the “growth rescue (activation)” value is reported as inactive: 22.3%.
With CN(C)CCNC(=O)C1(O)c2cc(Br)ccc2NC(=O)N1c1ccc(Cl)cc1 (stereo not drawn) the “growth rescue (activation)” value was inactive: 5.69%.
With OC[C@H]1O[C@@H](c2nc(-c3cccc4ccccc34)no2)[C@H](O)[C@@H]1O the “growth rescue (activation)” value was inactive: -13.5%.
With CCOc1ccc(C(=O)N2CCCC(c3nc(-c4ccc(C)o4)no3)C2)cc1 (stereo not drawn) the “growth rescue (activation)” value was inactive: 5.23%.
In the case of COc1ccccc1C(=O)NCCCNC(=O)c1ccccn1, the “growth rescue (activation)” value is reported as inactive: -13.6%.
For COc1cc(N2CCCC2)c(OC)cc1/C=C(/C#N)c1cccc(Br)c1, the “growth rescue (activation)” value was inactive: 43.9%.
For CCCCOc1ccc(C2(C)NC(=O)NC2=O)cc1 (stereo not drawn), the “growth rescue (activation)” value was inactive: 7.11%.
In the case of CN(CC(=O)Nc1ccc(F)cc1)C(=O)CCc1ccccc1, the “growth rescue (activation)” value is reported as inactive: 6.79%.
With COc1ccc(CN=C2NN=C(c3ccccc3)CS2)cc1 the “growth rescue (activation)” value was inactive: 11.7%.
For CCCn1c(N)c(C(=O)CN(C)CC(=O)Nc2cc(C)ccc2C)c(=O)[nH]c1=O, the “growth rescue (activation)” value was inactive: 8.99%.
For OCC#Cc1cnc2ccccc2c1, the “growth rescue (activation)” value was inactive: -18.3%.
In the case of O=C(c1c[nH]c(C(=O)N2CCN(c3ccccc3F)CC2)c1)c1cccc(Cl)c1Cl, the Potency is reported as active: 20 µM.
With CC(=O)c1cccc(N(CC(=O)NC2CCCCC2)C(=O)CNC(=O)c2cccs2)c1 the “growth rescue (activation)” value was inactive: 9.67%.
For Cc1ccc(C)c(N2CCN(c3nc4ccc(Cl)cc4n4cnnc34)CC2)c1, the “growth rescue (activation)” value was inactive: 13.8%.
For COc1ccc(/C=C/C(=O)N(C)C2CCS(=O)(=O)C2)cc1OC (stereo not drawn), the “growth rescue (activation)” value was inactive: 2.18%.
In the case of CCOc1ccccc1NC(=O)c1ccccc1NC(=O)c1ccco1, the “growth rescue (activation)” value is reported as inactive: 8.56%.
For Cc1ccnc(SCC(=O)N2CCc3ccccc3C2)n1, the “growth rescue (activation)” value was inactive: 12.1%.
With COc1ccc(CC(=O)Nc2ccc(F)c(F)c2F)cc1S(=O)(=O)N1CCOCC1 the “growth rescue (activation)” value was inactive: 21%.
For COC(=O)c1ccc(CNC(=O)C(NC(=O)c2ccco2)C(C)C)cc1 (stereo not drawn), the “growth rescue (activation)” value was inactive: 10.5%.
With O=C(CSc1n[nH]c(-c2ccncc2)n1)Nc1ccc(Br)cc1 the “growth rescue (activation)” value was inactive: 14.8%.
In the case of O=C(CN1CCC2(CC1)OCCO2)c1c[nH]c2ccccc12, the “growth rescue (activation)” value is reported as inactive: 7.73%.
For ClC(/C=N/n1cnnc1)=C/c1ccccc1, the “growth rescue (activation)” value was inactive: -8.87%.
In the case of CN(Cc1nc(-c2cccs2)no1)CC(O)c1ccccc1 (stereo not drawn), the “growth rescue (activation)” value is reported as inactive: 6.88%.
For COc1ccccc1C(=O)COC(=O)C1(C)CC1(Cl)Cl (stereo not drawn), the “growth rescue (activation)” value was inactive: 3.72%.
With Cc1ccc(C(=O)OCC(=O)N2CCOCC2)c(C)c1 the “growth rescue (activation)” value was inactive: 7.82%.
For Cc1ccc(C2=NN(C(=O)CCC(=O)O)C(c3cccc([N+](=O)[O-])c3)C2)cc1 (stereo not drawn), the “growth rescue (activation)” value was inactive: -10.7%.
In the case of CSc1ncccc1C(=O)NCCc1ccccc1, the “growth rescue (activation)” value is reported as inactive: 17.6%.
With CC12CCC(=O)N1C(C(=O)OCC(=O)Nc1cccc(Br)c1)CS2 (stereo not drawn) the “growth rescue (activation)” value was inactive: 3.15%.
With Cc1ccc2c(c1)N(CC(=O)Nc1ccccc1F)C(=O)C(C)O2 (stereo not drawn) the “growth rescue (activation)” value was inactive: 1.43%.
With O=C(O)C1C2CCC(C2)C1C(=O)NCc1ccco1 (stereo not drawn) the “growth rescue (activation)” value was inactive: -2.48%.
With CCn1c(SCC(=O)Nc2nnc(C)s2)nnc1C(C)NC(=O)c1ccccc1 (stereo not drawn) the “growth rescue (activation)” value was inactive: -13.4%.
With O=C(C1=C(O)C(=O)N(Cc2ccco2)C1c1cccs1)c1cccs1 (stereo not drawn) the “growth rescue (activation)” value was inactive: -1.18%.
In the case of O=C(Nc1ccc(Cl)c(S(=O)(=O)N2CCOCC2)c1)c1cccs1, the “growth rescue (activation)” value is reported as inactive: -18.4%.
In the case of COC(=O)c1ccc(N2Cc3ccccc3/C2=N\C(=O)Nc2ccccc2)cc1, the “growth rescue (activation)” value is reported as inactive: 23.9%.
With CN(CCNC(=O)C1CCC(=O)N(Cc2cccc(F)c2)C1)CCc1ccccc1 (stereo not drawn) the “growth rescue (activation)” value was inactive: 18.7%.
With CCOc1ccc(NCc2cccn2-c2nnc(N3CCC(C(=O)NCc4cccc(OC)c4)CC3)s2)cc1 the “growth rescue (activation)” value was inactive: 3.09%.
With O=C(N/N=C/c1ccsc1)c1ccc2ccccc2n1 the “growth rescue (activation)” value was inactive: 8.62%.
For COc1cccc(CN(C)S(=O)(=O)c2c(C)noc2C)c1OC, the “growth rescue (activation)” value was inactive: 24.9%.
With CC1=NNC(=O)C1CCC(=O)N/N=C/c1ccc(C)cc1 (stereo not drawn) the “growth rescue (activation)” value was inactive: 29.3%.
With N#Cc1ccccc1Sc1ccccc1C(=O)OCC(=O)NC1CCCCC1 the “growth rescue (activation)” value was inactive: -9.61%.
For CSc1ccccc1NC(=O)CN(C)CC(=O)c1[nH]c(C)c(C(C)=O)c1C, the “growth rescue (activation)” value was inactive: 1.13%.
With CCCCCN1CN(S(=O)(=O)c2cccs2)c2nc3ccccc3nc21 the “growth rescue (activation)” value was inactive: -5.51%.
For O=c1c2[nH]c3ccc(F)cc3c2ncn1Cc1ccncc1, the “growth rescue (activation)” value was inactive: -2.34%.
In the case of OCCC1CN(Cc2cccc(O)c2)CCN1CCc1ccccc1 (stereo not drawn), the “growth rescue (activation)” value is reported as inactive: -25.6%.
For Cc1ccc(CNC(=O)c2cnccn2)cc1, the “growth rescue (activation)” value was inactive: 8.54%.
With CC(Sc1ncccn1)C(=O)Nc1ccc2c(c1)OCCO2 (stereo not drawn) the “growth rescue (activation)” value was inactive: -20.9%.
